# According to publication PMC4336329 (PLoS ONE, 2015):
# In all, about 310,000 compounds went through this assay and about 14,000 (4.5%) showed an effect of 50% or more. Effects have a minus sign here. The list shows a part of the results.
# Molecular target: human ether-à-go-go-related gene (hERG) potassium channel (human, UniProt Q12809)
# Assay: primary screen, population patch clamp on CHO cells stably expressing hERG
# 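Also: peak tail current of the secondary pulse compared with the same well before compound.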
# Sequence of human ether-à-go-go-related gene (hERG) potassium channel (Q12809 whole entry, looked up): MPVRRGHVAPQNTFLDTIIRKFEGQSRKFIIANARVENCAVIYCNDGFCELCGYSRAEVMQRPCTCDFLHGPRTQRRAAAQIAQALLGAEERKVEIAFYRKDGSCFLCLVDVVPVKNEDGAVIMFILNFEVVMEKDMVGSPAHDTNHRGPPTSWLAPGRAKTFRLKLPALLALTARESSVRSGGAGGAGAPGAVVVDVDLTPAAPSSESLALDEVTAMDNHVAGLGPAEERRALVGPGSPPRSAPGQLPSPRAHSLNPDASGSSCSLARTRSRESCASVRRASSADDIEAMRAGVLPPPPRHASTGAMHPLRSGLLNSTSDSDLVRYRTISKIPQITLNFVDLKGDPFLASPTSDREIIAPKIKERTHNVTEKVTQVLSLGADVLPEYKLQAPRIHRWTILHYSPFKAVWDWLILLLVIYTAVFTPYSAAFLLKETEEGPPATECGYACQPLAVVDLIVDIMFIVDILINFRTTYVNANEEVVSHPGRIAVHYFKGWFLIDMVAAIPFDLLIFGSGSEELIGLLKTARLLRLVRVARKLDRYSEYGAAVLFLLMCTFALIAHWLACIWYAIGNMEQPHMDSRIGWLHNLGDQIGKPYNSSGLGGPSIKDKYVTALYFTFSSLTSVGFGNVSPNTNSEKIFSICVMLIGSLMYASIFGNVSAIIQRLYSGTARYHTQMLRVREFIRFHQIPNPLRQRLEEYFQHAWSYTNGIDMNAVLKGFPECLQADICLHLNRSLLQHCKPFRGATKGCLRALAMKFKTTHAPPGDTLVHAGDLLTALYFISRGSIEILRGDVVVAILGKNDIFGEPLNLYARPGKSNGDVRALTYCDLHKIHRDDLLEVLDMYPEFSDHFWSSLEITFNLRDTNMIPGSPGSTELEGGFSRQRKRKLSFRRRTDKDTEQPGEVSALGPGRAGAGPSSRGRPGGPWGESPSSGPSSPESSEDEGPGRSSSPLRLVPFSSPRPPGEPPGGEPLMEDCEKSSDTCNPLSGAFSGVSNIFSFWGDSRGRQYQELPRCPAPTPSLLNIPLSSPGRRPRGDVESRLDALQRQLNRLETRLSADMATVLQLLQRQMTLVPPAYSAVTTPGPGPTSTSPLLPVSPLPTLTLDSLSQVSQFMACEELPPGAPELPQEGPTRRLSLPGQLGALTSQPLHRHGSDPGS
row,Structure (SMILES),"hERG current change (%, negative = inhibition) at 10uM [%]"
1,Cc1nn(C(=O)c2cccc([N+](=O)[O-])c2)c(C)c1Br,4.02
2,COc1ccccc1C(CCN(Cc1cccs1)C(C)=O)c1ccco1 (stereo not drawn),-2.93
3,CC(NS(=O)(=O)c1ccccc1)C(=O)NC1CCCC1 (stereo not drawn),0.0711
4,O=c1[nH]c(/C=C/c2cccnc2)c([N+](=O)[O-])c(=O)[nH]1,31.7
5,CCc1c(C)nc2cc(-c3ccc(OC)c(OC)c3)nn2c1N1CCCC1,8.35
6,CCCCc1c(C)c2cc(C)ccc2[nH]c1=O,11.4
7,COc1ccc(S(=O)(=O)Nc2ccc(N3CCOCC3)nc2)cc1,8.55
8,Cc1ccc2c3c([nH]c2c1)C(=O)CC(C)(C)S3,13
9,COc1ccc(CNCC(O)COc2ccc(C)cc2[N+](=O)[O-])cc1 (stereo not drawn),-71.2
10,CSc1nc(-c2ccco2)nn1S(=O)(=O)c1ccccc1,4.41
11,C=CCSc1nnnn1-c1ccc(OC)cc1,-20
12,COc1cc(C(=O)Nc2nc3ccc(S(=O)(=O)N4CCOCC4)cc3s2)cc(OC)c1OC,-5.58
13,Cc1cn(-c2cc(NC(=O)c3ccc(C)c(NC(=O)c4cccc(-c5cn[nH]c(=O)c5)c4)c3)cc(C(F)(F)F)c2)cn1.O=C(O)C(F)(F)F,8.75
14,O=C(Cn1cc([N+](=O)[O-])cn1)N1CCc2ccccc2C1,-2.02
15,COc1cc2c(cc1NC(=O)COC(=O)[C@@H](NC(=O)c1ccccc1)C(C)C)oc1ccccc12,1.32
16,Cc1ccc(F)c([C@H]2[C@H]3C=CC[C@@H](C)[C@@H]3C(=O)N2Cc2ccccc2)c1,-10.5
17,COc1ccc(COc2ccccc2C(N)=O)cc1F,3.05
18,O=C(COC(=O)c1cccnc1)Nc1ccc(F)cc1,1.87
19,CCOc1ccccc1OCCn1nc2ccccc2n1,6.37
20,O=C(O)C1=CC[C@@H](c2ccc(Cl)cc2)N(S(=O)(=O)c2ccc(Cl)cc2)C1,21.6
21,COc1cccc(N2CC(O)Cn3c2nc2c3c(=O)[nH]c(=O)n2C)c1 (stereo not drawn),6.32
22,CCC(=O)c1ccc(OCC(=O)NCC2(N3CCCCC3)CCCCC2)cc1,-51.5

row,Structure (SMILES),"hERG current change (%, negative = inhibition) at 10uM [%]"
1,CSC(SC)=C(C#N)C(=O)c1ccccc1,4.47
2,Cc1oc2ccc(NS(=O)(=O)c3cccc4cccnc34)cc2c1C(=O)OC(C)C,22.3
3,CC(=O)c1ccc(N2CCN(C(=O)c3c(-c4ccccc4Cl)noc3C)CC2)cc1,-10.4
4,O=C1CCC(Cc2ccccc2)N1 (stereo not drawn),16.1
5,CCCCn1c(-c2nn(C)cc2Cl)n[nH]c1=S,6.61
6,CCCCC(NC(=O)Cc1c(C)c2cc3c(-c4ccccc4)coc3c(C)c2oc1=O)C(=O)O (stereo not drawn),13.2
7,O=C(O)C(=O)O.O=C(c1cccc(Cl)c1)N1CCN(Cc2c[nH]c3ccccc23)CC1,-20.4
8,O=C(NCC1CCCO1)c1ccc2nc(N3CCCCC3)sc2c1 (stereo not drawn),-27.2
9,CN(Cc1ccccc1)c1ncnc2ccc(Br)cc12,-27
10,CN1CCC(OC(=O)c2ccccc2)CC1.Cl,7.92
11,COc1cc(N2C(=O)c3ccccc3C2=O)c(Cl)cc1C(=O)OCC(=O)NCc1ccco1,-56.1
12,CC(C)Oc1cccc(C(=O)C2CCCN(S(=O)(=O)C(C)C)C2)c1 (stereo not drawn),-21.7
13,CCN1C(=O)[C@@H]2[C@@H](c3ccc(-c4ccc(F)cc4)cc3)N3CCC[C@@]3(C(=O)OC)[C@@H]2C1=O.O=C(O)C(F)(F)F,-20.7
14,COC(=O)C1=C(N)Oc2cc(C)n(CCCn3ccnc3)c(=O)c2C1c1ccc(Cl)cc1 (stereo not drawn),-59.8
15,O=C(NC(=S)Nc1ccccc1O)c1ccccc1Cl,13.3
16,O=C(CCc1nc(-c2ccccc2Cl)no1)Nc1cccnc1,-2.65
17,NC(=O)c1nnn(-c2cccc(C(F)(F)F)c2)c1-c1ccccc1,12.5
18,COc1cc2c(cc1OC)C1(CCCC1)CNC2C.Cl (stereo not drawn),-3.04
19,COCCNC(=O)c1cc2ncc(Br)cn2n1,5.41
20,CCCCn1c(SCC(=O)N2c3ccccc3CCc3ccccc32)nc2c1c(=O)n(C)c(=O)n2C,-1.44
21,CCOC(=O)c1cc(CC)sc1NC(=O)CN1CCN(C(=O)C2CCCO2)CC1 (stereo not drawn),-65.9
22,O=C(Cn1ccc2ccccc2c1=O)NCCC(=O)N1CCN(c2cccc(Cl)c2)CC1,-8.46

row,Structure (SMILES),"hERG current change (%, negative = inhibition) at 10uM [%]"
1,COc1ccc(CC2(CO)CCN(Cc3ccc(NC(C)=O)cc3)CC2)cc1,-57.4
2,COc1ccc(C(=O)N2CCCCC2)cc1S(=O)(=O)Nc1ccccc1,-0.348
3,Cc1cc(CNC(=O)C2(C(F)(F)F)C/C(=C\CCO)CCCO2)nn1C (stereo not drawn),4.95
4,CCCNc1nc(C)cc(-c2cc(-c3ccccc3)on2)n1,19.9
5,Cc1nc(C)c(Oc2ccc(Cl)cc2Cl)c(=O)[nH]1,13.4
6,O=C(C1CCCCC1)N1CCN(S(=O)(=O)c2ccc(Br)cc2)CC1,-4.21
7,Cc1ccc(C(=O)NNC(=O)CCC(=O)NCc2ccccc2)cc1Br,7.76
8,CC(=O)N(CN1C(=O)c2ccccc2C1=O)c1ccc2c(c1)oc1ccccc12,-2.01
9,CCCCn1c(=O)c(C(=O)NCc2ccccc2OC)c(O)c2ccccc21,5.98
10,O=P(OC1CCCCC1)(OC1CCCCC1)C(Nc1ccccc1)c1cccnc1 (stereo not drawn),-33.6
11,CSCC[C@H](NC(=O)Nc1ccccc1C)C(=O)O,0.33
12,COc1cc(SC#N)ccc1N=Cc1c(C)[nH]n(-c2ccc(Cl)cc2)c1=O,-4.93
13,CCOc1ccc(Nc2cc(C)c3ccccc3n2)cc1,0.00468
14,CCOc1ccc(C2=Nc3ccc(Br)cc3C(c3ccc(N4CCOCC4)cc3)=NN2)cc1,14.3
15,O=C(CCCOc1ccccc1)NCc1ccco1,-8.64
16,CCCn1nnnc1NCc1ccc(CC)cc1,-6.44
17,CCOC(=O)C1(CCOC)CCN(C2C3CC4CC(C3)CC2C4)CC1 (stereo not drawn),5.57
18,Cc1oc2cc3oc(=O)c(CCC(=O)N[C@H](C(=O)O)C(C)C)c(C)c3cc2c1C,7.35
19,COc1ccc(C2CC(c3ccccc3)=NN2C(=O)COC(=O)c2cccc(S(=O)(=O)N3CCOCC3)c2)cc1 (stereo not drawn),13.5
20,Cc1nc(SCC(=O)Nc2c(C)n(C)n(-c3ccccc3)c2=O)c(C#N)c(C)c1C,-46.8
21,COc1cc2c(cc1OC)C(C(=O)NC1CC1)C1c3ccccc3CCN1C2=O (stereo not drawn),-4.76
22,O=C(CCc1nnc(CCCCc2ccccc2)o1)NCCn1cccn1,4.22

row,Structure (SMILES),"hERG current change (%, negative = inhibition) at 10uM [%]"
1,CC(=O)c1nn(-c2cccc(Br)c2)cc1C(=O)c1ccc2ccccc2c1,13.7
2,N#CCC(CNc1ncc(C(F)(F)F)cc1Cl)OC(=O)c1cccc(C(F)(F)F)c1 (stereo not drawn),-5.32
3,Cc1ccccc1CN1CCN(Cc2ccccc2C(F)(F)F)CC1.O=C(O)C(=O)O,0.869
4,CCc1[nH]c(=O)c(C#N)c2c1COC(C)(C)C2,-6.05
5,OCCNc1nc(-c2ccccc2)c2ccccc2n1,-12.7
6,Cc1ccc(CNC2=NCCCCC2)n1C,5.25
7,Cc1nc(N2CCN(c3ccccn3)CC2)c2c(C)c(C(=O)Nc3ccc(F)cc3)sc2n1,-76.4
8,COC(=O)Nc1nc2c(C)cccc2s1,-5.84
9,NC(=O)c1cc(S(=O)(=O)Nc2cccc(Cl)c2)cs1,-61.2
10,Nc1cccc(S(=O)(=O)c2cccc(N)c2)c1,-5.81
11,CCOC(=O)c1c(C)nc(C)c(C(=O)OCC)c1-c1cccc(N)c1,14.6
12,CC(=O)c1cccc(OCc2cc(C(=O)N3C[C@H]4CC[C@H]3C4)no2)c1,4.62
13,CN(C)C(CNS(=O)(=O)c1ccc2ccccc2c1)c1ccccc1.Cl (stereo not drawn),-8.93
14,CC(=O)c1ccc(Oc2ncnc(N)c2[N+](=O)[O-])cc1,12.4
15,O=C1NC(c2ccc(-c3ccccc3[N+](=O)[O-])o2)C(C(=O)c2ccc(Cl)cc2)C(O)(C(F)(F)F)N1 (stereo not drawn),2.13
16,COc1ccc(/C=C/C(=O)OCC(=O)N2CCCC2)c(OC)c1,-3.65
17,Cn1c2c(c(=O)n(C)c1=O)C1c3ccccc3OCC1C(C)(C)O2 (stereo not drawn),-4.89
18,COc1ccc(OC(=O)COc2cc(C)ccc2C)cc1,10.1
19,O=C(c1ccc(Cn2cc(Br)cn2)o1)N1N=C(C(F)F)CC1(O)C(F)F (stereo not drawn),-11
20,N#C/C(=C\c1c(N2CCCCC2)nc2ccccn2c1=O)S(=O)(=O)c1ccccc1,-40.7
21,Nc1cc(C(F)(F)F)ccc1Nc1ccccc1,19
